# Assay results published in the supplement of paper PMC12217912.
# Some of the results follow. The full chains were built here from the parent and the listed change. Values near 0.05 are background.
# B1: TEV protease; numbered along this chain (parent)
# chain: MGESLFKGPRDYNPISSSICHLTNESDGHTTSLYGIGFGPFIITNKHLFRRNNGTLVVQSLHGVFKVKDTTTLQQHLVDGRDMIIIRMPKDFPPFPQKLKFREPQREERICLVTTNFQTKSMSSMVSDTSCTFPSGDGIFWKHWIQTKDGQCGSPLVSTRDGFIVGIHSASNFTNTNNYFTSVPKNFMELLTNQEAQQWVSGWRLNADSVLWGGHKVFMVKPEEPFQPVKEATQL
# Variants of: B1
# Assay: raw area under fraction-flipped curve 0-4 h after induction (AUC4h, not background-subtracted), DNA-recorder readout of cleavage of the substrate (dimensionless); higher = more cleavage of the substrate by the protease variant
# Settings: temperature: 34 °C; time window: 0-4 h after rhamnose induction
# Description: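 In vivo DNA recorder in E. coli TOP10(DE3) ΔrhaA at 34 °C. Each TEVp single-site mutant (parent TEVp 0) is paired with a single-site variant of the 7-mer TEVs (canonical ENLYFQ|S). The substrate sits between flexible linkers in a Bxb1-sfGFP-TEVs-SsrA fusion, so cleavage stabilises Bxb1 and speeds flipping of a recombination array, read by NGS. The value is the raw area under the fraction-flipped curve over 0-4 h after rhamnose induction (AUC4h), with ≥20 reads per time point. It is not background-subtracted; inactive controls average about 0.047.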
# 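Further: Bxb1 expression induced with 0.2% (w/v) L-rhamnose at OD600 near 0.5, cultures sampled hourly, flipped fraction per protease–substrate barcode pair counted by paired-end Illumina sequencing.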
Variant,area with substrate ENLAFQS,area with substrate ENLCFQS,area with substrate ENLDFQS,area with substrate ENLEFQS,area with substrate ENLFFQS,area with substrate ENLHFQS,area with substrate ENLIFQS,area with substrate ENLKFQS,area with substrate ENLMFQS,area with substrate ENLNFQS,area with substrate ENLQFQS,area with substrate ENLRFQS,area with substrate ENLSFQS,area with substrate ENLVFQS,area with substrate ENLGFQS,area with substrate ENLPFQS,area with substrate ENLWFQS,area with substrate ENLLFQS,area with substrate ENLTFQS
S127G,0.0424,0.0597,0.0602,0.0479,0.09,0.106,0.0838,0.0766,0.0827,0.0747,0.0726,0.0797,0.0717,0.0888,,,,,
S130Y,0.0668,0.065,0.0546,0.0559,0.0678,0.0558,,0.0679,0.0686,0.0724,0.0808,0.0669,0.0553,,0.0607,0.0411,0.0741,,
T132A,0.0674,,0.0551,0.0641,0.0943,0.0635,0.0674,0.077,,0.0692,0.0698,0.0621,0.0647,0.0871,0.0572,0.0615,,0.0827,0.0714
F133K,0.0714,0.0828,0.0585,0.0578,0.101,0.0669,0.089,0.0771,,0.0559,,,0.0652,0.0875,,0.0518,,0.0649,0.0679
F133W,0.066,0.0726,0.0581,,0.0811,0.0724,0.049,0.0783,,0.0618,0.0571,0.0798,0.058,0.086,,0.0605,0.078,0.122,
P134D,0.0633,0.0683,0.0649,0.0641,0.0545,0.0654,0.0682,0.07,,0.0607,0.0733,0.0687,0.0578,0.0643,0.0809,0.0758,0.0535,0.0576,
S135R,0.0759,0.0618,0.0601,0.0734,0.0783,0.0531,0.0596,0.0662,0.0647,0.0568,0.065,0.0356,0.0555,0.0721,,0.0706,0.0571,0.0587,
W141I,0.0482,,,0.0622,0.0572,,0.0561,0.0609,,0.0459,0.0667,,0.0385,0.0664,,,,0.0512,
K142L,0.0774,0.0689,0.0588,0.0729,0.0991,0.0761,0.0726,0.0727,0.0649,0.0809,0.0816,0.0755,0.0627,0.0667,0.0668,0.0648,0.0618,0.0776,
I145K,0.0623,0.0627,0.0577,0.0701,,0.055,0.0662,,,0.056,,0.057,0.0556,,,0.0476,,,
Q146C,0.0593,,0.0578,,0.105,0.0588,0.08,0.0849,,0.0554,0.0669,,0.0825,,0.0346,0.0533,0.0796,0.0922,0.0702
Q146M,0.0332,,,0.0698,0.109,,,0.0954,0.0808,0.0417,0.0661,0.0555,,,,0.0574,0.0764,0.0916,
Q146T,0.0664,,0.0553,0.0613,0.0757,0.102,,0.0742,,0.0719,0.0534,0.0926,0.0615,,0.0707,0.0752,0.0684,,
T147Q,0.0574,0.0629,0.066,0.0644,0.0607,0.0467,0.0648,,0.072,0.0616,0.0571,0.0635,0.0621,0.0746,0.0715,0.0652,0.0622,,0.06
K148E,0.0833,0.0753,0.0684,0.0601,0.0675,0.0777,0.0828,0.0658,,0.0616,0.071,0.0707,0.0683,0.084,0.078,0.0381,0.0647,0.0725,
D149Y,0.0572,0.0463,0.0588,0.0582,0.0996,0.0658,0.0462,0.0446,0.0637,0.0512,0.0472,,,0.107,,0.0629,0.0611,,
G150H,0.0655,0.0578,0.0634,0.066,0.0617,0.0612,0.059,0.068,0.0743,0.0575,0.0648,0.0707,0.0518,0.0431,0.0611,0.0707,,0.0695,
G150V,0.0588,0.0644,0.0637,0.058,0.0551,0.0649,,0.0678,,0.0649,0.0587,0.0613,0.057,0.0672,0.0685,0.0587,0.0633,0.0483,0.0549
Q151E,0.0698,0.0742,0.0594,0.0672,0.075,0.0696,,0.074,0.0589,0.0656,,0.0771,0.0565,,0.0591,0.0628,,0.0702,0.0647
C152P,0.0695,0.0665,0.0548,0.0674,0.0644,0.0562,,0.0604,0.0563,,0.0487,,0.0571,0.0555,0.048,,,,
S154H,0.0609,,0.0572,0.0696,0.0641,0.0624,0.0655,0.0648,0.0806,0.0705,0.068,0.0604,0.0735,0.0899,,0.0597,0.0632,0.0633,
P155K,0.0656,0.0492,0.0539,0.0549,0.0549,0.0694,0.0691,0.0519,0.0855,0.0423,0.0618,0.062,,,,0.0545,,,
L156E,0.0306,0.0488,0.0534,0.055,0.0493,0.0224,0.0375,0.0581,,0.0508,0.0729,,0.065,0.0585,,0.0579,0.0532,0.0455,
L156H,0.0517,0.0634,0.0561,0.0608,0.0879,0.0555,0.0632,0.0607,0.0613,0.058,0.0344,0.0502,0.0534,0.0572,,0.0564,,0.0477,0.0773
